Assay results from PubChem BioAssay AID1508642 (National Center for Advancing Translational Sciences (NCATS), 2021).
In all, about 43,000 compounds went through this assay and about 200 (0.47%) were called active. Not shown: some 12% with an inconclusive outcome. Calls follow the shape of the dose curve; as a rule, active = well fitted cell-killing curve with a large enough effect; inconclusive = small, poorly fitted or top-dose-only effect, or effect the other way; inactive = flat fitted curve, though single readings scatter. Some of the results follow.

Assay: Cell viability qHTS assay in S16 Pmp22-F2sN cells; also: nearly all actives have a fitted effect of over 65% in size
Conditions: S16 Pmp22-F2sN Schwann cells (luciferase reporters placed in the Pmp22 gene) viability, CellTiter-Glo, 24 h; series mostly up to 57.5 µM; activity change, negative = cytotoxicity: at the top concentration
Procedure, shortened: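 Luminescence from CellTiter-Glo, read by CCD camera after a 15 min room-temperature incubation, served as the viability signal. Reporter Schwann cells (S16 Pmp22-F2sN) had been treated with pin-transferred compounds for 24 h at 37C.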
% is scaled to controls: 0 for no effect and ±100 for the full control effect.

SMILES	activity change, negative = cytotoxicity
CCCCNC(=O)c1ccc(-c2nc(CS(=O)(=O)c3ccc(C)cc3)c(C)o2)cc1	inactive: -3.5%
Cc1ccc(N2CC(c3nnc(Cc4ccc(F)cc4Cl)o3)CC2=O)cc1 (stereo unspecified)	inactive: 4.42%
COC(=O)CNC(c1ccccc1)c1cc(Br)ccc1NC(=O)c1cc(OC)c(OC)c(OC)c1 (stereo unspecified)	inactive: -7.64%
CC1=C(c2ccc(Cl)cc2)S(=O)(=O)N=C1N1CCN(c2cccc(C)c2)C(C)C1 (stereo unspecified)	inactive: 4.52%
CCOC(=O)c1c(-c2ccc(C)cc2)csc1NC(=O)c1ccc(C(C)(C)C)cc1	inactive: 14.1%
CCc1ccc(NC(=O)CCS(=O)(=O)c2ccc3c(c2)oc(=O)n3C)cc1	inactive: 5.73%
COC(=O)c1ccc(OC)c(Cn2c(=O)n(-c3cccc(Cl)c3)c(=O)c3c2c2cc(C)ccc2n3C)c1	inactive: 14%
COc1ccc(CCNC(=O)CCCn2c(=O)c3ccccc3n(CC(=O)Nc3c(C)cc(C)cc3C)c2=O)cc1OC	inactive: 13.9%
CCOc1ccc(NC(=O)Cn2cnc3nc4c(cc3c2=O)CCCC4)cc1	inactive: -8.39%
COc1ccc(-c2cc(C)no2)cc1S(=O)(=O)Nc1cccc(C(F)(F)F)c1	inactive: -5.87%
Cc1c(CCNC(=O)c2ccc(C(F)(F)F)cc2)sc2nc(-c3ccc(F)cc3)nn12	inactive: 2.42%
COc1ccc(CCNC(=O)Cn2c(C)c3cnn(-c4ccccc4)c(=O)c3c2C)cc1OC	inactive: 1.14%
CC1=C(C(N)=O)C(c2ccc(C(C)C)cc2)n2nc(SCc3ccccc3F)nc2N1 (stereo unspecified)	inactive: -0.231%
CCn1cc2nc(SCc3cccc(C(F)(F)F)c3)n(CCc3ccccc3)c(=O)c2n1	inactive: 29.4%
Fc1ccc(-n2ncc3c(Nc4ccc(Oc5ccc(Cl)cc5)cc4)ncnc32)cc1	inactive: -0.0523%
COc1ccc(-c2[nH]c(-c3ccc(F)cc3)nc2SCC(=O)Nc2ccc(OC)c(OC)c2)cc1	inactive: -10.9%
Cc1ccccc1C(=O)Nc1ccccc1C(=O)OCc1cc(=O)n2nc(C3CC3)sc2n1	inactive: 8.9%
Cc1ccc(NC(=O)CN2C(=O)C(c3ccccc3)=NC2(C)C)cc1C	inactive: -1.91%
CCc1ccc(-n2c(=O)c3cccnc3n2CC(=O)N(CC)c2cccc(C)c2)cc1	inactive: 0.0649%
Cc1ccc(-n2ncc3c(NCCc4ccccc4)ncnc32)cc1	inactive: -1.44%
Cc1cc2oc(C(=O)N(Cc3ccccc3)C3CCS(=O)(=O)C3)cc(=O)c2cc1C (stereo unspecified)	inactive: -25.1%

SMILES	activity change, negative = cytotoxicity
CCOc1ccc(S(=O)(=O)n2nc(C)c(S(=O)(=O)N3CCCCCC3)c2C)cc1	inactive: 1.15%
CN1CCN(c2ncc3c(n2)CCN(Cc2ccccc2Cl)C3)CC1	inactive: 2.83%
Cc1c2cnn(-c3ccccc3)c(=O)c2c(C)n1CC(=O)NCc1ccc(Cl)cc1	inactive: 11.4%
CCc1ccc(NC(=O)CSc2nnc(-c3nonc3NC(C)=O)n2-c2ccccc2)cc1	inactive: -10.9%
COc1ccc2c(C)cc(SCC(=O)Nc3nsc(-c4ccc(C(C)(C)C)cc4)n3)nc2c1	inactive: 2.99%
COc1cccc(Cn2c(SCc3ccc(C(=O)N4CCC(C)CC4)cc3)nc3ccncc32)c1	inactive: -15.6%
CCC(Cc1ccccc1)NC(=O)c1csc2c1CCCCC2 (stereo unspecified)	inactive: 1.63%
COc1ccccc1NC(=O)C1=C(C)Nc2ncnn2C1c1ccc[nH]1 (stereo unspecified)	inactive: 4.55%
CCN(CC)C(=O)Cn1c(SCC(=O)Nc2ccc(C)c(C)c2)nc2ccccc21	inactive: 6.19%
COc1ccc(CNC(=O)CN2CCSc3ccccc32)c(OC)c1	inactive: 15.8%
CCN(c1ccccc1)S(=O)(=O)c1cc(C(=O)Nc2ccc(Br)cc2)ccc1F	inactive: -17%
CCOC(=O)c1c(Nc2ccccc2)nnc(-c2ccccc2)c1-c1ccccc1	inactive: -13.2%
O=C(Cn1c(=O)oc2ccccc21)NCc1ccc(Cl)cc1	inactive: -6.54%
COc1ccc2oc(-c3ccc(C)c(NC(=O)c4ccc(N5CCCCC5)c([N+](=O)[O-])c4)c3)nc2c1	inactive: 9.49%
CCc1ccc(NC(=O)CSc2nc3ncccc3[nH]2)cc1	inactive: 11.1%
CCOc1ccc(/C=C/C(=O)Nc2sc3c(c2C(=O)OC)CCC3)cc1	inactive: -26.4%
CCCOc1ccccc1C1Oc2nc(SC)nnc2-c2ccccc2N1C(C)=O (stereo unspecified)	inactive: -0.892%
COCCNC(=O)Cn1ncc2c(C)n(Cc3ccc(C)cc3)c(C)c2c1=O	inactive: 7.15%
CCOC(=O)c1ccc(-c2ccc(/C=C(\C#N)C(=O)Nc3ccc(C)cc3OC)o2)cc1	inactive: -4.92%
CCCNC(=O)CN1CCN(c2ncc(NC(=O)c3ccc(Cl)cc3)cc2C(=O)O)CC1	inactive: -2.53%
CSc1ccc(C2c3c(oc4ccccc4c3=O)C(=O)N2CCCN2CCOCC2)cc1 (stereo unspecified)	inactive: 10.5%

SMILES	activity change, negative = cytotoxicity
CC(C)(C)C(=O)OC1=CN(Cc2ccccc2)S(=O)(=O)c2ccccc21	inactive: 3.16%
Cc1ccc(C)c(CNC(=O)c2cnc3sc(N4CCCC4)nn3c2=O)c1	inactive: 1.63%
CCOc1ccc(C(=O)c2cn(Cc3ccc(F)cc3)c3ccc(F)cc3c2=O)cc1	inactive: 0.252%
Cc1cccc(-n2ncc3c(N4CCCCCC4)ncnc32)c1	inactive: -0.678%
Cc1ccc(CN(Cc2ccco2)C(=O)c2oc3ccc(C)cc3c2C)cc1	inactive: -3.16%
Cc1ccc(NC(=O)Cn2nnc(C(=O)NCCc3ccccc3)c2N)cc1C	inactive: -4.84%
Cc1oc2ncn(C)c(=O)c2c1C(=O)NCCCN(Cc1ccccc1)C(C)C	inactive: 10.6%
CCn1c(=O)c2sccc2n2c(CCC(=O)Nc3ccc(OC)c(Cl)c3)nnc12	inactive: 6.22%
Cc1ccc(C(=O)Nc2nc(-c3ccccc3)ns2)cc1	inactive: 1.23%
CCc1ccc(C2NC(=O)c3[nH]nc(-c4cccc(OC)c4)c32)cc1 (stereo unspecified)	inactive: -17.6%
CC(C)Oc1ccc(CNC(=O)C2CCN(c3nc4ccccc4n(C)c3=O)CC2)cc1	inactive: 8.64%
Cc1ccsc1CN(C(=O)c1oc2ccccc2c1C)C1CCS(=O)(=O)C1 (stereo unspecified)	inactive: -1.07%
Cc1ccc(C)c(Cn2c3ccccc3c3cnn(CC(=O)NC(C)c4ccccc4)c(=O)c32)c1 (stereo unspecified)	inactive: 24.4%
CS(=O)(=O)N1CCc2cc(C(=O)Nc3cccc(F)c3)ccc21	inactive: -3.5%
Cc1ccc(O)c(NC(=O)CCS(=O)(=O)c2nc(-c3ccc4c(c3)OCO4)cc(C(F)(F)F)n2)c1	inactive: 0.975%
COc1ccc(S(=O)(=O)N(CC(=O)Nc2cccnc2)c2ccc(C)cc2)cc1OC	inactive: 11.8%
COc1cc2c(=O)n(CCC(=O)NCC3CCCO3)c(=O)n(CC(=O)Nc3ccc(F)cc3)c2cc1OC (stereo unspecified)	inactive: -11.5%
CCOc1ccccc1NC(=O)COc1ccc(S(=O)(=O)NC2CCCCC2)cc1	inactive: 9.88%
O=C(Nc1ccc(F)c(F)c1)C1CCCN1S(=O)(=O)c1cccc2nsnc12 (stereo unspecified)	inactive: 3.56%
